Experimental findings from a collection of fitness landscapes (doi:10.1016/j.celrep.2020.107928) are described below.

The labels stand for the following.
B1: Caulobacter ParB omega fusion; a variant is named by its letters at X, in order, B8GW30 (parent)
chain: MESVVVGEPGMSEGRRGLGRGLSALLGEVDAAPAQAPGEQLGGSREAPIEILQRNPDQPRRTFREEDLEDLSNSIREKGVLQPILVRPSPDTAGEYQIVAGERAWRAAQRAGLKTVPIMVRELDDLAVLEIGIIENVQRADLNVLEEALSYKVLMEKFERTQENIAQTIGKSXSHVANXMRLLXLPDEVQSYLVSGELTAXHARAIAAAADPVALAKQIIEGGLSVRETEALARKAPNLSAGKSKGGRPPRVKDTDTQALESDLSSVLGLDVSIDHRGSTGTLTITYATLEQLDDLCNRLTRGI

Whole data set: some 81,000 sequences, median “one-hybrid fitness for binding NBS DNA” near -0.1, cut for the highest 2% near 0.36. Some of the results follow.

Variants of B1 are the subject of the test. Briefly: one-hybrid fitness for binding NBS DNA (the Noc-binding site; scaled: cognate 1, non-cognate 0); higher = stronger binding. The following applies: with NBS DNA site. The method in brief:
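Values were rescaled so that cognate is 1 and non-cognate is 0. Each is a fitness, the log change in a variant's read ratio to wild type from Illumina reads of plasmids before and after selection, with three replicate libraries pooled and variants under 10 reads dropped. Selection of the Caulobacter ParB libraries, four specificity codons randomised, used E. coli USO with a HIS3 reporter, site 19 bp from the promoter, on M9-minus-histidine with 0.1 mM IPTG and 5 mM 3-AT for 48 hours at 37°C.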
For the variant CNST, the “one-hybrid fitness for binding NBS DNA” value was not above 0.2.
Under IPYS stands not above 0.2; under MGTW, not above 0.2; under RQSI, not above 0.2.
Under DSSQ stands not above 0.2.
For AQTL, the “one-hybrid fitness for binding NBS DNA” value is not above 0.2.
Regarding DTGR, the “one-hybrid fitness for binding NBS DNA” value was not above 0.2.
For QGSP, the “one-hybrid fitness for binding NBS DNA” value is not above 0.2.
On to FPEP, for which the “one-hybrid fitness for binding NBS DNA” value was not above 0.2.
As to LIIC, the “one-hybrid fitness for binding NBS DNA” value was not above 0.2.
Under NYTF stands not above 0.2; under DLPS, not above 0.2; under IINN, not above 0.2.
Under VPCA stands not above 0.2; under FPVG, not above 0.2; under AGPP, not above 0.2.
Under LLGC stands not above 0.2.
Regarding RLKC, the “one-hybrid fitness for binding NBS DNA” value stood at 0.335.
Consider QIHL, for which the “one-hybrid fitness for binding NBS DNA” value is not above 0.2.
With AAYI, the “one-hybrid fitness for binding NBS DNA” value is not above 0.2.
Under RCGM stands not above 0.2; under YLDF, not above 0.2.
On to LPEN, for which the “one-hybrid fitness for binding NBS DNA” value was not above 0.2.
Under RFCA stands not above 0.2; under WYKC, not above 0.2; under SSKY, not above 0.2.
Under GLRG stands not above 0.2; under FRTL, not above 0.2.
Under ASQC stands not above 0.2.
Consider YSSL, for which the “one-hybrid fitness for binding NBS DNA” value was not above 0.2.
Under SYCN stands not above 0.2; under ADAI, not above 0.2.
Under AHKV stands not above 0.2.
For DFNR, the “one-hybrid fitness for binding NBS DNA” value was not above 0.2.
Under HFGT stands not above 0.2; under PSNT, not above 0.2; under AKIS, not above 0.2.
Take DLAY: the “one-hybrid fitness for binding NBS DNA” value was not above 0.2.
Under CTTR stands not above 0.2; under EGCK, not above 0.2; under KRIY, not above 0.2.
Under SGQN stands not above 0.2; under RCAY, not above 0.2.
As for KIAT, the “one-hybrid fitness for binding NBS DNA” value is not above 0.2.
Take NTTS: the “one-hybrid fitness for binding NBS DNA” value is not above 0.2.
Under PQWR stands not above 0.2; under QKSS, 0.449; under KTSN, not above 0.2.
Consider MGQM, for which the “one-hybrid fitness for binding NBS DNA” value was not above 0.2.
Under QMLS stands 0.317; under NDRR, not above 0.2; under AEAV, not above 0.2.
Turning to KIEG, the “one-hybrid fitness for binding NBS DNA” value was not above 0.2.
Under PLTN stands not above 0.2.
Under CHNS stands not above 0.2; under QCLG, not above 0.2.
As for NDLR, the “one-hybrid fitness for binding NBS DNA” value was not above 0.2.
Turning to PVMG, the “one-hybrid fitness for binding NBS DNA” value was not above 0.2.
Under AHMC stands not above 0.2; under LKDL, not above 0.2; under SISC, not above 0.2.
As to TDVE, the “one-hybrid fitness for binding NBS DNA” value is not above 0.2.
For SIRK, the “one-hybrid fitness for binding NBS DNA” value was not above 0.2.
In the case of WKSI, the “one-hybrid fitness for binding NBS DNA” value was not above 0.2.
Under PWLY stands not above 0.2; under LTKW, not above 0.2; under VHSS, not above 0.2.
Under HGKC stands not above 0.2; under RCNF, not above 0.2.
Regarding NDKR, the “one-hybrid fitness for binding NBS DNA” value was determined as 0.288.
Take TDTP: the “one-hybrid fitness for binding NBS DNA” value is not above 0.2.
As for YFAF, the “one-hybrid fitness for binding NBS DNA” value is not above 0.2.
Under HKYW stands not above 0.2; under GVVV, not above 0.2.
Under FLTW stands not above 0.2; under VIDS, not above 0.2.
